About 120 (0.25%) of roughly 48,000 compounds were called active. Inconclusive results (about 4%) are left out. Calls follow the shape of the dose curve; as a rule, active = well fitted activation curve with a large enough effect; inconclusive = small, poorly fitted or top-dose-only effect, or another doubt; inactive = no such curve, though single readings can be large or run the other way. The list shows a part of the results.
assay: Primary qHTS for Identification of Small Molecule Activators of Huntingtin-Antisense Promoter Activity; details: HEK293 HTT-AS promoter firefly luciferase reporter (activity 0% = vehicle and -100% = no light), 24 h; series mostly up to 57.5 µM; activity change, positive = activation: at the top concentration; also: nearly all actives have a fitted effect of over 55% in size
Outline: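 Luminescence was read after Dual-Glo reagent and a 10 min room-temperature incubation. Values were normalized to vehicle (0% activity) and zero RLU (-100% activity). Reporter HEK293 cells had been exposed to compounds (up to 57.5 uM final) for 24 h.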

Activity change, positive = activation, inactive:
COc1ccccc1Cc1nc2ccccc2nc1SCC(=O)NCc1ccccc1Cl 12.3%, CN1CCc2nc3sc(C(=O)Nc4ccccc4C(F)(F)F)c(N)c3cc2C1 -5.96%, CCCC1=Nc2cc(C(=O)N3CCC(C)CC3)ccc2Sc2ccc(C)cc21 -14.9%, CC1=C(C(=O)OC2CCCCCC2)C(c2cccc(Cl)c2)CC(=O)N1 (stereo not given) -48.5%, Cc1ccc2c(=O)c(C(=O)c3cccc(Cl)c3)cn(CC(=O)Nc3ccccc3C(F)(F)F)c2n1 -8.6%, CCOC(=O)c1cccc2c1N[C@@H](c1ccc(F)cc1)[C@H]1CC=C[C@@H]21 -17.7%, Cc1ccc(CCNC(=O)c2ccc3c(=O)n(-c4ccccc4)c(=O)[nH]c3c2)cc1 12.6%, Cn1cc(S(=O)(=O)N2CCCCC2)cc1C(=O)Nc1cccc(C#N)c1 -17.4%, O=C(CCCCC(=O)Nc1c(I)cc(I)c(C(=O)O)c1I)Nc1c(I)cc(I)c(C(=O)O)c1I 2.7%, CCCN(C(=O)Cn1ncc2c([nH]c3ccc(C)cc32)c1=O)c1ccccc1C -18%, COc1cccc(N2CC(NC(=O)/C=C\c3ccc(OC)c(OC)c3)CC2=O)c1 (stereo not given) -6.25%, CCC(C)NC(=O)CN1C(=O)COc2ccc(S(=O)(=O)N3CCOCC3)cc21 (stereo not given) -21.3%, CCOc1ccccc1NC(=O)c1c(NCc2sccc2C)sc2c1CCC(C)C2 (stereo not given) -21.9%, O=C(O)c1ccc(-c2cc3cccnc3c(-c3ccc4nonc4c3)n2)cc1 -19.1%, COc1ccc(NC(=O)Cn2cc(S(=O)(=O)Cc3ccc(F)cc3)c3ccccc32)cc1OC -41.3%, Cc1c(CN2CCN(S(C)(=O)=O)CC2)sc2c(N3CCOCC3)nc(-c3cnc(N)nc3)nc12 -44.9%, CCOC(=O)C1CCC(CN(Cc2cccc(Br)c2)S(=O)(=O)c2ccc(Cl)cc2)CC1 (stereo not given) -30.3%, CCOC(=O)N1CCc2c(sc3c2C(=O)NC(c2ccccc2F)N3)C1 (stereo not given) -12.5%, COc1ccc(N2CC(NC(=O)COc3ccc4ccccc4c3)CC2=O)cc1OC (stereo not given) -7.2%, CCN1C(=O)C(Cc2nc3ccccc3c(=O)n2-c2ccc(OC)cc2)c2ccccc21 (stereo not given) -1.01%, CCCCC1CCC(C(=O)N2CC(=O)Nc3ccc(Cl)cc3C2c2ccc(F)cc2)CC1 (stereo not given) -21.4%, Cc1ccc(-n2c(=O)c3c4c(sc3n(CC(=O)Nc3ccccc3C)c2=O)CCCCC4)cc1C -19.3%, COc1ccccc1CNc1nccn(-c2ccccc2)c1=O 3.52%, CCC(C)NC(=O)c1sc2nc(C)c(C(=O)Nc3ccc(C)cc3C)c(-c3ccccc3Cl)c2c1N (stereo not given) 0%, CCN(CC)c1ccc(-c2nc(-c3ccco3)no2)cc1[N+](=O)[O-] -46.3%, COc1ccc(NC(=O)c2cnc(N3CCCCC3)c3ccccc23)cc1Cl -30%, O=C(O)CCC1CCC(c2cc(F)ccc2F)(S(=O)(=O)c2ccc(Cl)cc2)CC1 (stereo not given) -15.9%, CCOc1ccccc1NC(=O)c1ccc2c(Cl)c3c(nc2c1)CCCC3 7.24%, Nc1nc(=O)n([C@H]2CSC(CO)O2)cc1F (stereo not given in full) -8.34%, CCOc1ccc(-c2nnc(SCC(=O)NCCc3ccccc3)nc2-c2ccc(OCC)cc2)cc1 -0.362%, COc1cccc(CNc2nc3c(-c4cccc(C)c4)nnn3c3ccccc23)c1 13.2%, CC(=O)Nc1ccc(NC(=O)CCC(=O)c2ccc(C)cc2)cc1 -0.398%, O=C(OCc1cc(=O)n2nc(-c3cccs3)sc2n1)c1ccccc1Br 5.81%, Cc1cc(NC(=O)C(C)(C)Oc2ccc(Cl)cc2)cc(-c2nc3ncccc3o2)c1O -7.63%, Cc1cc(C)cc(C(=O)Nc2nnc3n2CCS3)c1 2.3%, CCOC(=O)c1ccc(NC(=O)CSc2nccn2Cc2ccc(OC)cc2)cc1 -27.3%, O=C(CSc1ncc2c(n1)-c1cc(Cl)ccc1N(Cc1ccccc1F)S2(=O)=O)Nc1cccc(C(F)(F)F)c1 -16.5%, CCCCCN1C(C(=O)c2ccccc2)=C(NC(C)=O)c2ccccc2S1(=O)=O -36.9%, COC(=O)c1cc(NC(=O)c2ccc3c(c2)N(Cc2cccc(Cl)c2)C(=O)c2ccccc2S3=O)cc(C(=O)OC)c1 (stereo not given) -14.5%, CC(=O)c1cccc(NC(=O)c2c(C)nn(-c3ccc(F)cc3)c2-n2cccc2)c1 -28.3%, Cc1cc2ccccc2n2c(SCC(=O)Nc3cccc(C(F)(F)F)c3)nnc12 -8.46%, CCCn1c2ccccc2c2cnn(CC(=O)Nc3ccc(C)cc3Br)c(=O)c21 -16.3%, CNc1oc(-c2ccc(COc3ccc(C)cc3)o2)nc1C#N -11%, COc1ccc(OCc2nc3c4c(-c5ccc(OC)cc5)c(-c5ccc(OC)cc5)oc4ncn3n2)cc1 -6.14%, CCOc1ccccc1NC(=O)c1cnc(N2CCOCC2)c2ccccc12 -8.1%, COc1ccc(C)cc1NC(=O)CCNS(=O)(=O)c1cccc2nonc12 0.415%, CCc1ccc(NC(=O)c2sc3nc(C)c(Cl)c(C)c3c2NC(=O)c2ccccc2)cc1 6.76%, Cc1cccc(CNC(=O)c2sc3ncnc(N(C)C4CCCCC4)c3c2C)c1 -2.55%, Cc1nn(-c2ccccc2)c2nc(C3CC3)cc(C(=O)NCc3ccccc3Cl)c12 -9.44%, CCN(CC)c1nc(-c2ccccc2Cl)c2cc(Br)ccc2n1 -5.35%, CC(C)Nc1ccc(-c2nc(-c3ccccn3)no2)cc1[N+](=O)[O-] 9.95%, Cc1cc(Cl)ccc1OCC(=O)N(Cc1ccc(N(C)C)cc1)CC1CCCO1 (stereo not given) -36.2%, COc1ccc(CCNC(=O)c2cc(S(=O)(=O)N3CCCC(C)C3)cn2C)cc1OC (stereo not given) -28.3%, O=C(O)c1ccc2c(c1)N(Cc1ccc(F)cc1Cl)C(=O)c1ccccc1S2 -8.75%, COc1ccc(NC(=O)CCS(=O)(=O)c2nc(-c3ccc4c(c3)OCO4)cc(C(F)(F)F)n2)c(OC)c1 -12.5%, CC(CNC(=O)CCCn1c(=O)c2cccn2c2ccccc21)c1ccccc1 (stereo not given) -25%, CCN(C(=O)c1cnc(N2CCOCC2)c2ccccc12)c1cc(C)ccc1C -14.8%, CC(C)N(Cc1ccccc1)C(=O)CN1C(=O)COc2ccc(S(=O)(=O)N3CCCCCC3)cc21 -29.1%, O=C(c1ccc2c(c1)N(Cc1ccccc1)C(=O)c1ccccc1S2=O)N1CCC(Cc2ccccc2)CC1 (stereo not given) -40.2%, Cc1ccc2c(c1)c(=O)c(S(=O)(=O)c1ccc(C)c(C)c1)cn2CC(=O)Nc1ccccc1 -10.6%, CCc1cccc(C)c1NC(=O)C1=C(C)C(=O)OC12CCC(C)CC2 (stereo not given) -6.22%, CCCOc1ccc(C2=NC(c3ccc(F)cc3)=Nc3ccc(OC)cc3N2)cc1 -3.75%, CC[N+](CC)(CCNC(=O)C(=O)NCC[N+](CC)(CC)Cc1ccccc1Cl)Cc1ccccc1Cl -1.79%, COc1ccccc1Nc1ncc(C(=O)Nc2ccc(OC)c(OC)c2)c2ccccc12 -10%, Nc1nccc(-c2ccc3noc(-c4ccc(Cl)cc4)c3c2)n1 -24%, COc1ccccc1CNC(=O)c1cnc2sc(N3CCOCC3)nn2c1=O -6.07%, COc1ccc(N2CCN(C(=O)Cn3nc(Cc4cccnc4)c4ccccc4c3=O)CC2)cc1 -33.5%, COc1ccc(NC(=O)NCC2CCN(Cc3ccccc3F)CC2)c(OC)c1 7.98%, COC(=O)c1cc(S(=O)(=O)N2CCN(c3ccc(F)cc3)CC2)cn1C -10.6%, COc1ccccc1CNC(=O)c1ccc2c(c1)CCN2S(=O)(=O)c1ccc(Cl)cc1 3.23%, COc1ccc2nc(N(Cc3cccnc3)C(=O)COc3ccccc3)sc2c1 23.7%, Cn1cc(C(=O)NCCc2ccc(Cl)cc2)c(=O)c2cc(S(=O)(=O)N3CCCCC3)ccc21 -7.45%, COC(=O)c1ccc(Cn2nnc3c(=O)[nH]c(C4CCCN(S(=O)(=O)c5ccccc5)C4)nc32)cc1 (stereo not given) 14.2%, O=S(=O)(c1ccc(-c2cnc(C3CC3)o2)cc1)N1CCN(c2cccc(Cl)c2)CC1 4.59%, CCOc1ccccc1C(=O)Nc1cc(-c2ccc(C)cc2)no1 39.7%, Cc1cccc(S(=O)Cc2ccc(C(=O)NC3CCCCCC3)o2)c1 (stereo not given) -11.5%, Cc1ccc(C(=O)Nc2ccc(C(=O)OCc3cc(=O)n4c5c(sc4n3)CCCC5)cc2)cc1 -9.92%, Cc1c(-c2ccccc2)n(-c2ccccc2O)c2nc3c(c(=O)n(C)c(=O)n3C)n12 -44.2%, COc1cc(OC)c(NC(=O)N2CCN3CCCCC3C2)cc1Cl (stereo not given) 15.5%, CC(C)(C)c1cc(C(C)(C)C)c2oc(=O)c(-c3nc4ccc(C(=O)O)cc4[nH]3)cc2c1 -23.9%, CCOC(=O)c1ccccc1NC(=O)CSc1cc(C)[nH]c(=O)n1 -9.3%, COc1ccc(Cl)cc1NC(=O)CCN1C(=O)c2ccccc2Sc2ncccc21 -20.5%, CC(=O)N1CCc2cc(S(=O)(=O)NC(CC(C)C)C(=O)NCCc3ccccc3)ccc21 (stereo not given) 15%, CC(C)C(=O)N1c2nc(C(C)C)nn2C2(CCCCC2)[C@@H]2CCCC[C@@H]21 -12.4%, Cc1cc(C)c2c(=O)cc(CSc3nnc(-c4ccccc4)n3C)[nH]c2c1 -23%, Cc1ccc(Nc2nc3ccccc3c3nnc(C)n23)cc1Cl -24.5%, COc1cc(-c2nnc(SCC(=O)Oc3ccccc3)o2)cc(OC)c1OC -5.6%, COc1ccc(OC)c(Nc2ncc3c(n2)CCN(Cc2cc(OC)c(OC)c(OC)c2)C3)c1 -11.1%, CCCC(CCC)C(=O)Nc1cccc(-c2nc3cccnc3s2)c1 4.29%, CCc1ccccc1NC(=O)N1CCC2(CC1)Oc1ccccc1C(=O)N2Cc1ccccc1F -3.88%, COc1ccc(CCN2C(=O)N(c3ccc(F)cc3)C(=O)C2CC(=O)Nc2ccc(OC)cc2)cc1 (stereo not given) -29.6%, CC(=O)Nc1ccc(NS(=O)(=O)c2ccc3[nH]c4c(c3c2)CCCCC4)cc1 -33.2%, CCOc1ccc(C(=O)NCC(c2ccc3c(c2)OCO3)N2CCN(c3ccc(F)cc3)CC2)cc1 (stereo not given) -26.6%, CCCCC1C(=O)N(c2ccccc2)N(c2ccccc2)C1=O -17.3%, Cc1ccc(-n2nc3c(N4CCC(C(=O)NCCc5ccccc5C)CC4)nnc(C)c3c2C)cc1 -40.2%
